Measured values reported in the RNAGym collection of RNA variant scans (doi:10.1073/pnas.2313332121).
This sample is rich in variants without activity.

B1: TPR 5TU (parent)
chain: GGAUCUUCUCGAUCUAACAAAAAAGACAAAUCUGCCACAAAGCUUGAGAGCAUCUUCGGAUGCAGAGGCGGCAGCCUUCGGUGGCGCGAUAGCGCCAACGUUCUCAACUAUGACACGCAAAACGCGUGCUCCGUUGAAUGGAGUUUAUCAUG

Variants of: B1
Assay: polymerase ribozyme fitness, log enrichment relative to wild type (log ratio); higher = more active; in vitro selection for triplet polymerase activity
Procedure, shortened: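 Only genotypes with ≥10 input reads and ≥1 read per output were kept after Illumina sequencing of input and output libraries. These libraries were PCR-built, transcribed mutants of each subunit of a heterodimeric triplet polymerase ribozyme, each put through one triplicate in vitro selection round with frozen incubation at −7 °C, gel excision of extended constructs, streptavidin-bead capture and RT-PCR. Fitness is a logarithmic ratio of genotype enrichment to wild-type enrichment, from inverse-variance-weighted replicate averages, with the logarithm in base 2.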

Polymerase ribozyme fitness (log ratio), -3.65:
C36G C95A

Polymerase ribozyme fitness (log ratio), -3.62:
C35U U135G

Polymerase ribozyme fitness (log ratio), 0.279:
C35U U146C

Polymerase ribozyme fitness (log ratio), -2.9:
C35U U56G U134A

Polymerase ribozyme fitness (log ratio), -1.08:
C35U U56A C95A C105U G126C

Polymerase ribozyme fitness (log ratio), ≤ -4.2:
C35U U44G G65C C85U A107G C114G A115U U135A G140U
C35U U45A A47C C93A C103G C105A G117A G143C
C35U U45A C79A G83A C85A C103U
C35U U53A U55A C57G G70A G84A C93A
C35U U55A C57G C69U C95G G140C
C35U U55A C79U U111C G124U
C35U U55G G81C G83C C93G
C35U U56A G83U G92U C125U U151G
C35U U56G A66C A106G G117A U134A
C35U U61A A113G
C35U U77C C95A U146G
C35U U77C G84C A89G C118U
C35U U82G C105G A106U G124C A137G U148G
C35U U90G A119U U127A C132U G143U A147C
C35U U104G G133U
C36A A37C C38A C95G C99U U146A
C36A A39C G50A C57U C87U A89C C103A A106U C108U U148G
C36A A39C U55G A73U C93G A147C
C36A A40U G59C G67A G71C A98G
C36A A47G A66G C85A G94U A138U
C36A A47U G83C C123U C131A
C36A A49C C87G C103A C114U
C36A A64U C85A C125U
C36A A66G G88C U101G C116G
C36A A91U
C36A A97U U101C U139A
C36A A119G
C36A C43A C51A G88C G124A U130G G136U G141U
C36A C51U G68A C85G A97U
C36A C54U A73G A107G
C36A C57A G92A C131A
C36A C57U A73C
C36A C69U C95U U127C
C36A C72G G92A C129A A137U
C36A C72U U148C
C36A C75U C99U
C36A C75U U77A C118G G136A
C36A C85U A98G C125A
C36A C87U C105A C125A
C36A C93A
C36A C93G C125A
C36A C95U A97U G124U
C36A C108G G124U G141U
C36A G42C U55A A66C C69U C105G A122U G126A A142C
C36A G42U G92A A120G A121C A137G A142U
C36A G58A A73G C85U
C36A G59A A137C
C36A G59C A91C C114U U145C
C36A G68C G88A U101G
C36A G84U U102A C103U U127C
C36A G86A A89C C96U U148G A150C
C36A G117U U148C
C36A G133C U144G
C36A U45A A73U C96G
C36A U55A A106G C118A C132U
C36A U56A C76G C87A C123A
C36A U56A U61A U148G
C36A U56G G67C C93G G124A
C36A U77G G81C G92U A115U G136C
C36A U127G G140A
C36G A37U G86U A115U C116U G128C C132G G152C
C36G A39U U55A G94U A120U
C36G A39U U56A C57A C87U U148G
C36G A47U A91G
C36G A49C G58A G70C U82G A98U U104A A106G
C36G A49U U55A A121U A142U U148A
C36G A52G U104G A106G C123G U127G
C36G A60U G92A C114U G140C A147C
C36G A89G A91U A98G C132U
C36G A119C
C36G C51U C54U C93G
C36G C57G C72G C118U
C36G C87A
C36G G42C

Polymerase ribozyme fitness (log ratio), -3.98:
C36A G92A
C36A U82G U135C U145G G152U

Polymerase ribozyme fitness (log ratio), 0.243:
C35U U82C

Polymerase ribozyme fitness (log ratio), -2.48:
C35U U56A G143C

Polymerase ribozyme fitness (log ratio), -3.89:
C36A C87U
